Measurements: PubChem BioAssay (NCI)
Values joined by “and” are separate entries in the source; they are usually repeats but may differ in a detail not shown here. Identical values can stand only once.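 48-hour exposure; five concentrations; linearly interpolated endpoints. GI50 is the concentration that inhibits growth by half. TGI is the concentration that stops growth completely.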

Tested on: NCI-H322M lung
Experiment: growth of human tumour cells (NCI), 48 h

| Structure (SMILES) | TGI | GI50 |
| --- | --- | --- |
| CC1CC(N2CCOCC2)=Nc2ccccc2N1Cc1ccccc1 (stereo not given) | > 100 µM |  |
| Cc1nc(N(C(C)C)C(C)C)c(C(C)C)o1 | > 100 µM |  |
| N#Cc1cccc(Nc2ncc(-c3ccccc3)o2)c1 | > 25 µM | 13.7 µM |
| N#C/C(=C1\OC(=N)C(c2ccc(Cl)cc2Cl)C1=O)c1ccc(Cl)cc1Cl (stereo not given) | > 100 µM |  |
| NC(CCCCNCc1ccccc1O)C(=O)O (stereo not given) | > 100 µM |  |
| CC(=O)[CH-]C(C)=O.CC(=O)[CH-]C(C)=O.CC(=O)[CH-]C(C)=O.[Ga+3] | > 100 µM | > 100 µM |
| C[P+]1(c2ccccc2)CCCCC1 | > 100 µM |  |
| O=c1[nH]c(=O)n(C2C(CO)OC(CO)C2O)cc1F (stereo not given) | > 100 µM |  |
| N#CNC1=NC(N)C(c2nc3ccccc3[nH]2)=C(CCCC(=O)Nc2cccc([N+](=O)[O-])c2)N1 (stereo not given) | > 100 µM |  |
| C=C(CCC=C(C)C)C1CC=C(C)CC1 (stereo not given) | > 100 µM |  |
| Nc1c(Cl)cc(-c2nc3ccccc3s2)cc1Cl | > 100 µM |  |
| S=C(N/N=C/c1ccccn1)N1CCCCCC1 | > 100 µM |  |
| CN(C)C(F)=PC(F)(F)F (stereo not given) | > 100 µM |  |
| CC(=O)Nc1ccc(S(=O)(=O)NN(C)S(=O)(=O)c2ccc(C)cc2)cc1 | > 100 µM |  |
| NC(=O)CC(N)c1nn[nH]n1 (stereo not given) | > 100 µM |  |
| O=C(CO)C1CC2C=CC1C2 (stereo not given) | > 100 µM |  |
| CCOC(=O)/C=C/C1(CCOC(C)=O)CCCCC1 | > 10 µM |  |
| CN1CCC/C1=C1/C(=O)N(c2ccccc2)N=C1c1ccc[nH]1 | > 100 µM |  |
| C/C(=N\NC(=S)N1CCN(c2ccccn2)CC1)c1ncccn1 | 5.09 µM and 13.6 µM | 0.186 µM |
| COc1ccc(OC)c(Cc2cnc3nc(N)nc(N)c3c2C)c1 | > 56.6 µM |  |
| COCCOCOC(C)(C)[C@H](CCO)O[Si](c1ccccc1)(c1ccccc1)C(C)(C)C | 31.5 µM |  |
| N#Cc1cc2c(cc1Cl)Sc1nnc(Nc3cccc4ccccc34)n1S2(=O)=O | 18.3 µM | 5.2 µM |
| COC(=O)c1cc([N+](=O)[O-])cc([N+](=O)[O-])c1Cl | 33.5 µM | 17.6 µM |
| c1cc(CN2CCNCCNCCNCC2)cc(CN2CCNCCNCCNCC2)c1 | > 100 µM |  |
| Cc1cccc(CNc2ncnc3[nH]ncc23)c1 | > 100 µM |  |
| CS(=O)(=O)C1(Br)S(=O)(=O)OCCOS1(=O)=O | > 100 µM |  |

| Structure (SMILES) | TGI | GI50 |
| --- | --- | --- |
| O=C(O)CCCc1ccccc1 | > 1000 µM | 289 µM and > 1000 µM |
| C=C1C(=O)O[C@H]2[C@H]1CC/C(COC(=O)NCc1c[nH]c3ccc(F)cc13)=C\CC[C@@]1(C)O[C@@H]21 | 18.7 µM | 5.28 µM |
| O=c1[nH]c2ccccc2n1C1CCN(CCCC(c2ccc(F)cc2)c2ccc(F)cc2)CC1 | 6.14 µM and 25.1 µM | 2.33 µM |
| COc1ccc(C2CC(c3ccc(N(C)C)cc3)=NN2c2ccc(S(N)(=O)=O)cc2)cc1 (stereo not given) | > 100 µM | 5.13 µM |
| C=CCNC(=O)CN(CC(=O)OC)C1CCCCC1N(CC(=O)OC)CC(=O)OC (stereo not given) | > 100 µM |  |
| Nc1n[nH]c(CCCCCCCc2nc(N)n[nH]2)n1 | > 100 µM |  |
| COc1ccc(-c2[nH]c3ccccc3c2/C=C(\C#N)S(=O)(=O)c2ccccc2)cc1 | > 100 µM | 1.36 µM |
| CCN(Cc1ccc(F)cc1)c1ccc(CO)c(C(F)(F)F)c1 | 29.3 µM | 14.9 µM |
| COc1cc(-c2cc(=O)c3ccccc3[nH]2)cc(OC)c1OC | > 75 µM |  |
| BrCc1ccc(CBr)c2c1-c1c(CBr)ccc3ccc(CBr)c-2c13 | > 100 µM |  |
| O=[N+]([O-])/C=C/c1ccc(Cl)cc1Cl | 30.1 µM |  |
| c1ccc(C2CCCCC2)c(OCCCCCN2CCNCC2)c1 | 16.1 µM | 4.25 µM |
| O=C1CSC(c2ccccc2O)N1c1ccc(Oc2ccc(Cl)cc2)c(Cl)c1 (stereo not given) | 52.3 µM |  |
| CCCC(=O)OCOC(=O)N(C)N=Nc1ccc(C(=O)OCC)cc1 | > 100 µM |  |
| c1cncc(CSc2ncnc3nc[nH]c23)c1 | > 100 µM |  |
| Cc1ccc(C2=Nc3ccccc3SC(c3cccc4c3OCO4)C2)cc1 (stereo not given) | 45.9 µM |  |
| CC(=O)CC(=O)CCC(=O)Nc1cccc(C(F)(F)F)c1 | > 100 µM |  |
| CCOC(=O)C(CCCNC(=O)OC(C)(C)C)N(Cc1ccc(OC)cc1OC)C(=O)CC(=O)CP(=O)(OCC)OCC (stereo not given) | > 100 µM |  |
| O=C(O)C12CC3CC(CC(F)(C3)C1)C2 | > 100 µM |  |
| CCOC(=O)/C=C\C(C#N)(C#N)N=Cc1ccsc1 | 33.8 µM |  |
| O=C(O)C12CC3CC(C1)C2C=C3P(=O)(O)O (stereo not given) | > 100 µM |  |
| O=c1[nH]c2nc[nH]c2c(=O)n1C1CCCCC1 | > 100 µM |  |
| C/C(N=NS(=O)(=O)c1ccc(C)cc1)=C1\C=CC=CN1O | > 100 µM |  |
| C=C1C2CCC3(CCC4C5(C)CCCC4(C=[N+](CCO)C5)C3C2)C1O (stereo not given) | > 100 µM |  |
| C[C@@]1(OC(=O)c2cc([N+](=O)[O-])cc([N+](=O)[O-])c2)C[C@@H]2CCCC[C@@H]21 | > 100 µM |  |
| O=C1/C(=C/c2ccccc2O)N=C(c2ccccc2)N1c1cc(C(F)(F)F)ccc1Cl | > 100 µM | > 100 µM |
